The numbers were not newly measured in publication PMC11006913, which cites them from elsewhere.

Positions count from the first letter of the chain named. This is one part of the list.

Some targets named below: ARX (Homo sapiens) (UniProt Q96QS3); ARX L343Q (Homo sapiens) (UniProt Q96QS3); ARX P353R (Homo sapiens) (UniProt Q96QS3); ARX R332H (Homo sapiens) (UniProt Q96QS3); ARX T333N (Homo sapiens) (UniProt Q96QS3); ARX P353L (Homo sapiens) (UniProt Q96QS3); ISX (Homo sapiens) (UniProt Q2M1V0); ISX R83Q (Homo sapiens) (UniProt Q2M1V0).
Conditions in all cases: PBM; conditions not shown; double strand, one strand shown; scale: upbm affinity estimate (log intensity, higher = more binding, comparable within an allelic series)
In data set [1] the target is T1, HESX1 E149K (Homo sapiens) (UniProt Q9UBX0).
T1 sequence: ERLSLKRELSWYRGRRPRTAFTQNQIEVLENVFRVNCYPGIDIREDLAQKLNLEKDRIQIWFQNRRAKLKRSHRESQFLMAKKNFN

Data set [2] deals with T2, HESX1 N125S (Homo sapiens) (UniProt Q9UBX0).
T2 sequence: T1 sequence with N31S, K55E

The target of data set [3] is T3, HESX1 R160C (Homo sapiens) (UniProt Q9UBX0).
T3 sequence: T1 sequence with K55E, R66C

Data set [4] deals with HOXD13 I297V (Homo sapiens) (UniProt P35453).
Data set [5] addresses HOXD13 I322L (Homo sapiens) (UniProt P35453).
Data set [6] has as its target HOXD13 N298S (Homo sapiens) (UniProt P35453).
Data set [7] deals with HOXD13 Q325K (Homo sapiens) (UniProt P35453).
In data set [8] the target is HOXD13 Q325R (Homo sapiens) (UniProt P35453).
The target of data set [9] is HOXD13 R306W (Homo sapiens) (UniProt P35453).
The target in data set [10] is HOXD13 S316C (Homo sapiens) (UniProt P35453).
The target of data set [11] is PROP1 R112Q (Homo sapiens) (UniProt O75360).
The target in data set [12] is PROP1 R99Q (Homo sapiens) (UniProt O75360).
Data set [13] deals with PITX2 L100Q (Homo sapiens) (UniProt Q99697).
For data set [14], the target named is PITX2 R108H (Homo sapiens) (UniProt Q99697).
Data set [15] addresses PITX2 R130W (Homo sapiens) (UniProt Q99697).
The target of data set [16] is PITX2 T114P (Homo sapiens) (UniProt Q99697).
A further data set deals with T4, PBX4 (Homo sapiens) (UniProt Q9BYU1).
T4 sequence: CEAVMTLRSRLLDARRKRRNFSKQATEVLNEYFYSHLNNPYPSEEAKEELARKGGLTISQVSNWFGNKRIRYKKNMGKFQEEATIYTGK

The target of data set [17] is T5, PBX4 R215Q (Homo sapiens) (UniProt Q9BYU1).
T5 sequence: T4 sequence with R19Q

Regarding GGGTAATA [8-mer GGGTAATA], the binding signal in the data set with ARX (Homo sapiens) was 11.4; in the data set with ARX L343Q (Homo sapiens), 10.6; in the data set with ARX P353R (Homo sapiens) it was 10.6; in the data set with ARX R332H (Homo sapiens), 10.7.
AATACAAG [8-mer AATACAAG]: the binding signal with ARX (Homo sapiens) was 11.2; in the data set with ARX T333N (Homo sapiens), 11.
In the case of ATGTATAG [8-mer ATGTATAG], the binding signal with ARX (Homo sapiens) was 11.1; with ARX T333N (Homo sapiens), 11.
In the case of CTCATTAA [8-mer CTCATTAA], the binding signal with ARX P353L (Homo sapiens) was 12.5; in data set [1], 11; in data set [2] it was 10.9; in data set [3] it was 10.3; in data set [4] it was 12.2; in data set [5] it was 11.4. The binding signal was 12.6 in [6]; 10.9 in data set [7]; 12 in data set [8]; 11.4 in [9]; 12.2 in data set [10]; 14.8 in the data set with ISX (Homo sapiens). Moreover, in the data set with ISX R83Q (Homo sapiens), the binding signal was 13.4.
Take AAATTTAA [8-mer AAATTTAA]: the binding signal with ARX (Homo sapiens) was 11.5; with ARX L343Q (Homo sapiens), 10.5; with ARX P353R (Homo sapiens) it was 10.6; with ARX R332H (Homo sapiens) it was 10.6.
In the case of AATCAAGA [8-mer AATCAAGA], the binding signal was 11.4 in the data set with ARX (Homo sapiens), 10.6 in the data set with ARX L343Q (Homo sapiens), 10.6 in the data set with ARX P353R (Homo sapiens) and 10.8 with ARX R332H (Homo sapiens).
With GTCGATTA [8-mer GTCGATTA], the binding signal in the data set with ARX P353L (Homo sapiens) was 12.
For CCTCATTA [8-mer CCTCATTA], the binding signal with ARX P353L (Homo sapiens) is 12.4.
For the sequence CTAATCGA [8-mer CTAATCGA], in the data set with ARX P353L (Homo sapiens), the binding signal is 12.1.
In the case of CTAATGAG [8-mer CTAATGAG], the binding signal with ARX P353L (Homo sapiens) was 12.6.
For GACAATTA [8-mer GACAATTA], the binding signal was 12.2 with ARX P353L (Homo sapiens); 11.6 in data set [1]; 11.8 in data set [2]; 10.3 in data set [3]; 14.7 in the data set with ISX (Homo sapiens); 13.4 in the data set with ISX R83Q (Homo sapiens). Besides, the binding signal is 12.7 in data set [11] and 12.2 in [12].
Take CATATGAA [8-mer CATATGAA]: the binding signal is 10.8 in the data set with ARX (Homo sapiens) and 10.9 with ARX T333N (Homo sapiens).
For CATACTTA [8-mer CATACTTA], the results for the binding signal with ARX (Homo sapiens), in the data set with ARX P353L (Homo sapiens) and with ARX T333N (Homo sapiens) were 11.2, 11.1 and 11, respectively.
Consider AGGATTAT [8-mer AGGATTAT], for which the binding signal with ARX (Homo sapiens) was 11.2; with ARX L343Q (Homo sapiens), 10.6; in the data set with ARX P353R (Homo sapiens), 10.6; with ARX R332H (Homo sapiens), 10.7; in data set [13] it was 11.4; in data set [14] it was 9.57. Besides, the binding signal in [15] was 8.6; in data set [16], 9.97.
As for ATTATTCC [8-mer ATTATTCC], the binding signal with ARX (Homo sapiens) was 11.6; in the data set with ARX L343Q (Homo sapiens), 10.8; with ARX P353R (Homo sapiens) it was 10.7; with ARX R332H (Homo sapiens), 10.9.
Regarding ATTATAAA [8-mer ATTATAAA], the binding signal with ARX (Homo sapiens) is 11.7; in the data set with ARX L343Q (Homo sapiens), 10.5; in the data set with ARX P353R (Homo sapiens), 10.6; with ARX R332H (Homo sapiens) it was 10.6.
On to GGTAGTTA [8-mer GGTAGTTA], for which the binding signal was 11 with ARX (Homo sapiens), 11 with ARX P353L (Homo sapiens) and 10.6 with ARX P353R (Homo sapiens).
Consider AAGATTAC [8-mer AAGATTAC], for which the binding signal was 11.1 with ARX (Homo sapiens); 10.6 with ARX L343Q (Homo sapiens); 10.6 in the data set with ARX P353R (Homo sapiens); 10.6 with ARX R332H (Homo sapiens); 10.7 in the data set with ARX T333N (Homo sapiens).
In the case of GAATAATA [8-mer GAATAATA], the binding signal with ARX (Homo sapiens) was 11.4; with ARX L343Q (Homo sapiens), 10.7; in the data set with ARX P353R (Homo sapiens), 10.7; in the data set with ARX R332H (Homo sapiens), 10.8; in the data set with ARX T333N (Homo sapiens) it was 11.2.
As for CCTAACGA [8-mer CCTAACGA], in the data set with ARX P353L (Homo sapiens), the binding signal is 11.3.
As to ACTAATGA [8-mer ACTAATGA], in the data set with ARX P353L (Homo sapiens), the binding signal was 12.4.
On to ACTCGTTA [8-mer ACTCGTTA], for which the binding signal with ARX P353L (Homo sapiens) was 11.5.
As for ATAACTTG [8-mer ATAACTTG], the results for the binding signal with ARX (Homo sapiens) and in the data set with ARX T333N (Homo sapiens) were 11.3 and 11.1, respectively.
In the case of GGAATTAC [8-mer GGAATTAC], the binding signal was 11.7 in the data set with ARX (Homo sapiens), 10.8 with ARX L343Q (Homo sapiens), 10.7 with ARX P353R (Homo sapiens) and 10.9 with ARX R332H (Homo sapiens).
Consider AATCACAG [8-mer AATCACAG], for which the binding signal with ARX (Homo sapiens) is 11.1; with ARX L343Q (Homo sapiens), 10.7; with ARX P353R (Homo sapiens) it was 10.7; in data set [11], 11.7.
For the sequence GCTCATTA [8-mer GCTCATTA], the binding signal with ARX P353L (Homo sapiens) is 12.3.
As to GATAACGA [8-mer GATAACGA], the binding signal in the data set with ARX P353L (Homo sapiens) was 11.5.
For the sequence TAATGCTA [8-mer TAATGCTA], the binding signal with ARX (Homo sapiens) is 11.3; in the data set with ARX L343Q (Homo sapiens) it was 10.8; in the data set with ARX P353R (Homo sapiens), 10.7; with ARX R332H (Homo sapiens), 10.8.
As to CAATTACA [8-mer CAATTACA], the binding signal was 12.2 with ARX P353L (Homo sapiens); 11.5 in [1]; 11.4 in data set [2]; 10.4 in [3]; 14.7 with ISX (Homo sapiens); 13.1 with ISX R83Q (Homo sapiens). For the same sequence, the binding signal is 12.7 in data set [11] and 12.2 in [12].
With ATCCATCA [8-mer ATCCATCA], the figures for the binding signal (with ARX (Homo sapiens); with PBX4 (Homo sapiens); in [17]) were 11, 10.8 and 10.2, respectively.
Consider TAACTAAA [8-mer TAACTAAA], for which the binding signal was 11.2 with ARX (Homo sapiens), 10.6 in the data set with ARX L343Q (Homo sapiens), 10.6 with ARX P353R (Homo sapiens) and 10.6 with ARX R332H (Homo sapiens).
As to CGTAATAG [8-mer CGTAATAG], the binding signal in [1] is 10.7.
As for AGCTGGTG [8-mer AGCTGGTG], the binding signal in data set [1] is 10.1; in [2], 7.71; in data set [3], 10.1.
